For 6 molecules, binding results are on record in paper PMC10470536.

Test [1] addresses T1, RicA-3FL (FLAG-tagged RicA) (B. subtilis) (UniProt O31779).
T1 sequence: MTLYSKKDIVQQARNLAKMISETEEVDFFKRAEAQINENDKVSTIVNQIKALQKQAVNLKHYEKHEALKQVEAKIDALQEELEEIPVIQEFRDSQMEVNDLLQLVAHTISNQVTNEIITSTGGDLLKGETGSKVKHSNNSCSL
As to the kind of experiment: co-IP; called pull-down by the paper: lysate of the 3x FLAG strain (no cross-linking, RNase and DNase added, 1% Triton X100; 20 mM HEPES pH 7.4, 0.2 M NaCl) on anti-FLAG magnetic beads, 30 min at room temperature, washed with PBS, eluted with FLAG peptide; Western blot with anti-Ric or anti-Rny antiserum; eluant about 18-fold concentrated against the load. In general terms: A western blot detects proteins with antibodies after separation by electrophoresis.

For test [2], the target named is T2, RicT-3FL (3x FLAG-tagged RicT) (B. subtilis) (UniProt P37541).
T2 sequence: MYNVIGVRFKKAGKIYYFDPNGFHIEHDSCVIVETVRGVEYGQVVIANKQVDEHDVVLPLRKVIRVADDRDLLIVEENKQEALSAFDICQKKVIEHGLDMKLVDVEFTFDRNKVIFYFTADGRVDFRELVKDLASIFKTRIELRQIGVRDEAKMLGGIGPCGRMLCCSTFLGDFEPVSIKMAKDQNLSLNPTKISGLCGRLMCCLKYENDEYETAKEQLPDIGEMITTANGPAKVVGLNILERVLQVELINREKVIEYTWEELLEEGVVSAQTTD
As to the kind of experiment: co-IP; anti-FLAG pull-down as a1 from RicT-3FL lysate treated beforehand with 15 mM EDTA (pH 7.5) and 10 mM potassium ferricyanide, 1 h on ice (oxidation and chelation to strip the Fe-S clusters); Western blot with anti-Rny and anti-Ric antisera.

Test [3] concerns the target Rny-3FL (RNase Y with a C-terminal 3x FLAG epitope) (B. subtilis) (UniProt O31774). Description: co-IP; called pull-down by the paper: lysate of the 3x FLAG strain (no cross-linking, RNase and DNase added, 1% Triton X100; 20 mM HEPES pH 7.4, 0.2 M NaCl) on anti-FLAG magnetic beads, 30 min at room temperature, washed with PBS, eluted with FLAG peptide; Western blot with anti-Ric or anti-Rny antiserum; eluant about 18-fold concentrated against the load.

Test [4] addresses T3, RicF-3FL (FLAG-tagged RicF) (B. subtilis) (UniProt O34412).
T3 sequence: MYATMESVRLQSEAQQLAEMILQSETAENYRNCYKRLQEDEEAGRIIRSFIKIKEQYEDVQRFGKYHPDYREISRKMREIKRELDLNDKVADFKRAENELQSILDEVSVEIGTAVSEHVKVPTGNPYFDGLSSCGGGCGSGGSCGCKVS
The test is described as above.

Test [5] has as its target T2, RicT-3FL (3x FLAG-tagged RicT) (B. subtilis). The description is as above.
Test [6] addresses T4, RicF-3FL (FLAG-tagged RicF) (B. subtilis), O34412.
T4 chain: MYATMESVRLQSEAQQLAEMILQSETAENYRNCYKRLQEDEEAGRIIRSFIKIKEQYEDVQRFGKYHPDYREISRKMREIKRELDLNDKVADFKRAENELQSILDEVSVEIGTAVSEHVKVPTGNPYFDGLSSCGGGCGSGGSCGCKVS
The description is as above. To be noted: remark: other sources report otherwise.

Test [7] addresses T5, Rny-3FL (RNase Y with a C-terminal 3x FLAG epitope) (B. subtilis), O31774.
T5 chain: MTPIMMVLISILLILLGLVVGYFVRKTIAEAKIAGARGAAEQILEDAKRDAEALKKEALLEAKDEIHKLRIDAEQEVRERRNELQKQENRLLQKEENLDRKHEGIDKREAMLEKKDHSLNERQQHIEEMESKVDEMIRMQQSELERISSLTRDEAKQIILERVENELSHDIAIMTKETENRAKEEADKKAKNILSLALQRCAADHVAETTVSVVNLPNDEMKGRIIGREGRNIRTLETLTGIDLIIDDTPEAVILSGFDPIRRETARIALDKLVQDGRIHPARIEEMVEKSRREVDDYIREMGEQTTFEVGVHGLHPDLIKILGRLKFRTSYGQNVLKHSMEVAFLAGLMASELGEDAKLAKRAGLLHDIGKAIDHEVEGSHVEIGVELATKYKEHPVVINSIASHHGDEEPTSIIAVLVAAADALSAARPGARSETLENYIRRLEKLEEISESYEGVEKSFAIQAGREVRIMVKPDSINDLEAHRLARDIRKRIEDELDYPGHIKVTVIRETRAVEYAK
The description is as above. To be noted: remark: other sources report otherwise.

These are yes or no findings as the source states them, for the method shown. Binding seen in cells or lysates may run through a third protein. Some binding calls cover weakened binding; strength is not graded here. For part of these data: Sequences can lack the tags named with a protein.

For “Rny (RNase Y) (from UniProt O31774 1-520) (enzyme)”, in test [1], the binding result is given as “no binding”.

B1: RicA (YmcA) (protein, UniProt O31779 1-143)
chain: MTLYSKKDIVQQARNLAKMISETEEVDFFKRAEAQINENDKVSTIVNQIKALQKQAVNLKHYEKHEALKQVEAKIDALQEELEEIPVIQEFRDSQMEVNDLLQLVAHTISNQVTNEIITSTGGDLLKGETGSKVKHSNNSCSL
On to B1, for which the binding result in test [2] is “binds”; in test [3] it was “no binding”; in test [4], “binds”; in test [5], “binds”.

B2: Rny (RNase Y), O31774 1-520 (enzyme)
chain: MTPIMMVLISILLILLGLVVGYFVRKTIAEAKIAGARGAAEQILEDAKRDAEALKKEALLEAKDEIHKLRIDAEQEVRERRNELQKQENRLLQKEENLDRKHEGIDKREAMLEKKDHSLNERQQHIEEMESKVDEMIRMQQSELERISSLTRDEAKQIILERVENELSHDIAIMTKETENRAKEEADKKAKNILSLALQRCAADHVAETTVSVVNLPNDEMKGRIIGREGRNIRTLETLTGIDLIIDDTPEAVILSGFDPIRRETARIALDKLVQDGRIHPARIEEMVEKSRREVDDYIREMGEQTTFEVGVHGLHPDLIKILGRLKFRTSYGQNVLKHSMEVAFLAGLMASELGEDAKLAKRAGLLHDIGKAIDHEVEGSHVEIGVELATKYKEHPVVINSIASHHGDEEPTSIIAVLVAAADALSAARPGARSETLENYIRRLEKLEEISESYEGVEKSFAIQAGREVRIMVKPDSINDLEAHRLARDIRKRIEDELDYPGHIKVTVIRETRAVEYAK
As to B2, in test [6], the binding entry is “no binding”.

B3: RicF (YlbF) (protein, UniProt O34412 1-149)
chain: MYATMESVRLQSEAQQLAEMILQSETAENYRNCYKRLQEDEEAGRIIRSFIKIKEQYEDVQRFGKYHPDYREISRKMREIKRELDLNDKVADFKRAENELQSILDEVSVEIGTAVSEHVKVPTGNPYFDGLSSCGGGCGSGGSCGCKVS
For the molecule B3, the binding entry in test [2], in test [1] and in test [5] was “binds” each time.

B4: RicF (YlbF), O34412 1-149 (protein)
chain: MYATMESVRLQSEAQQLAEMILQSETAENYRNCYKRLQEDEEAGRIIRSFIKIKEQYEDVQRFGKYHPDYREISRKMREIKRELDLNDKVADFKRAENELQSILDEVSVEIGTAVSEHVKVPTGNPYFDGLSSCGGGCGSGGSCGCKVS
Take B4: the binding result in test [7] is “no binding”.

B5: RicT (YaaT) (protein, UniProt P37541 1-275)
chain: MYNVIGVRFKKAGKIYYFDPNGFHIEHDSCVIVETVRGVEYGQVVIANKQVDEHDVVLPLRKVIRVADDRDLLIVEENKQEALSAFDICQKKVIEHGLDMKLVDVEFTFDRNKVIFYFTADGRVDFRELVKDLASIFKTRIELRQIGVRDEAKMLGGIGPCGRMLCCSTFLGDFEPVSIKMAKDQNLSLNPTKISGLCGRLMCCLKYENDEYETAKEQLPDIGEMITTANGPAKVVGLNILERVLQVELINREKVIEYTWEELLEEGVVSAQTTD
Take B5: the binding result in test [1] and in test [4] was “binds” in each case.
